# The list shows a part of the results. The energies were worked out here from pooled read counts, against the library average; single values are noisy.
# Target: T1, Pho4 (S. cerevisiae) (UniProt P07270)
# T1 sequence: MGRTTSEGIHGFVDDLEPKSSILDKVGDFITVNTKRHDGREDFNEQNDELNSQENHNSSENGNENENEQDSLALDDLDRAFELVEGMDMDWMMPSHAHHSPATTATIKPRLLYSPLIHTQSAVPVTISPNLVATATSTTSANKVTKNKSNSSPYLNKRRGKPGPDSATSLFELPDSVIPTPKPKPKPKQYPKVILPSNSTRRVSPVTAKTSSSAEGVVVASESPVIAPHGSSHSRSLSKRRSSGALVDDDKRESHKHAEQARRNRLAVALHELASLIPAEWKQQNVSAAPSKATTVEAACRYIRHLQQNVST
# Assay: relative binding free energy (BET-seq); higher = weaker binding
# Details: reference: library average
row,Sequence,relative binding free energy [kcal/mol]
1,TCAATCACGTGGGGTT,-0.01
2,GGGCGCACGTGGCAGT,-0.12
3,GTGAACACGTGTGTGG,-0.08
4,GGGGACACGTGTGGGG,0.14
5,AGTTTCACGTGACGCG,0.38
6,GAGTTCACGTGAGGGG,0.43
7,TGGGGCACGTGTCGTC,-0.18
8,TTTGACACGTGGTTGT,0.12
9,TTGGCCACGTGAAGTG,0.23
10,GTTAGCACGTGTTTGG,-0.06
11,TTTGGCACGTGTTTAG,0.02
12,CTTAACACGTGGGGAG,-0.16
13,TATTACACGTGTAATG,0.1
14,ATTATCACGTGGAAAT,0.28
15,CGTTTCACGTGTGTGG,0.27
16,TTTGTCACGTGAGTAA,0.24
17,TTAAGCACGTGATCAG,0.01
18,TGGAACACGTGAGGGG,0.31
19,TGACACACGTGGTAGG,-0.04
20,TGGGGCACGTGCTCGT,-0.2
21,TAGTGCACGTGGAATT,0.15
22,GGCTACACGTGGGGGC,0.03
23,TTGGGCACGTGCTCGG,-0.24

row,Sequence,relative binding free energy [kcal/mol]
1,TGTAACACGTGTGCGA,0.07
2,GGGCCCACGTGGGTAT,-0.03
3,AGATACACGTGAAGGG,0.22
4,TAGGTCACGTGTAATA,0.22
5,ATTAACACGTGAGAGT,0.28
6,TGCGTCACGTGGAGTT,0.24
7,GTGGGCACGTGGTCTA,-0.18
8,ATATGCACGTGCGGGA,-0.07
9,TGATACACGTGTATGA,0.02
10,CTGTTCACGTGACTTG,0.38
11,TGCGTCACGTGAGGAT,0.16
12,GGTCACACGTGTGGTA,0.07
13,TGGGTCACGTGGACGA,0.17
14,CGTTGCACGTGCGTGA,-0.14
15,GGGTCCACGTGAAGTT,0.39
16,GTAGGCACGTGCTTTG,-0.1
17,ACGTTCACGTGGATGT,0.22
18,AGTAGCACGTGATTGG,0.18
19,GGCATCACGTGAAAGG,0.53
20,TAAGTCACGTGTTGTA,0.14
21,GATGGCACGTGTTATT,0.13
22,GTGTACACGTGTATAG,-0.11
23,CGGGGCACGTGCGAGG,-0.26

row,Sequence,relative binding free energy [kcal/mol]
1,CGCGCCACGTGTGGGG,-0.11
2,AGTTTCACGTGACTTT,0.15
3,TGATTCACGTGCGTGT,0.21
4,ACATACACGTGGGGTG,-0.21
5,TATAGCACGTGGTTGT,-0.07
6,GTTACCACGTGGGTGA,-0.09
7,TAGGGCACGTGTTTAA,-0.25
8,TTCTGCACGTGAGGGT,0.11
9,TAAATCACGTGAAGGC,0.55
10,TTGATCACGTGGTAGG,0.19
11,TGGGACACGTGACAGG,0.09
12,TCATGCACGTGCGGTA,0.03
13,CGGGACACGTGCTAGG,-0.03
14,GGGGCCACGTGTCTTT,0.09
15,TGGAACACGTGTCTGG,-0.01
16,TGGTACACGTGGGAAG,0.07
17,ATGAACACGTGACGGG,0.32
18,CGTGACACGTGCGGTT,-0.08
19,ACTGTCACGTGGAATT,0.29
20,GAGATCACGTGTGGGT,0.18
21,GTAGGCACGTGCGGTT,-0.01
22,GTGTTCACGTGGCTTA,0.25
23,AATGTCACGTGATAGT,0.23

row,Sequence,relative binding free energy [kcal/mol]
1,ATCGGCACGTGTGATG,-0.05
2,CTGGTCACGTGGTATC,0.13
3,TTGCACACGTGAGGTG,0.22
4,CATTTCACGTGCAGGG,0.27
5,AATGTCACGTGCGTTG,0.05
6,GTGGGCACGTGCCGGT,-0.1
7,GTCTTCACGTGGTGCG,0.15
8,ATTAGCACGTGTTCTT,0.01
9,ATAGTCACGTGAGGTG,0.1
10,TTGCACACGTGTTTAG,0
11,GAGTGCACGTGCTAGT,0.02
12,GGTGGCACGTGTAGCA,0.06
13,CGGGGCACGTGTGTAA,-0.11
14,TAGTGCACGTGTGTGA,-0.02
15,AGAATCACGTGAGTTT,0.47
16,CTATTCACGTGGTGCG,0.12
17,TGGCGCACGTGGAGGC,-0.22
18,GTGGGCACGTGAGTGT,0.21
19,AAGCGCACGTGGGGTT,-0.34
20,ATCCGCACGTGTTGTG,0.09
21,CGTGTCACGTGTTGAT,0.1
22,ACGTTCACGTGTTAGA,0.34
23,GTAATCACGTGGGGCA,-0.07

row,Sequence,relative binding free energy [kcal/mol]
1,GTTCACACGTGTCGGG,0.08
2,GGAGGCACGTGTGAGG,-0.1
3,GTGTGCACGTGGCTGT,-0.09
4,TCATGCACGTGCGGTT,-0.13
5,GACGGCACGTGGTAGT,-0.03
6,AAAATCACGTGTGTTG,0.13
7,TAGTGCACGTGTCGGG,0.01
8,GGGTACACGTGGGAAG,0.03
9,GGGTCCACGTGTGCGT,0.05
10,AGCAGCACGTGGAGGG,-0.14
11,GGTAACACGTGTAAAT,0.22
12,TCCGGCACGTGTGTGG,-0.09
13,ATGAGCACGTGGAGCG,-0.07
14,GTAAGCACGTGGTGAG,-0.12
15,GGTAACACGTGGTGGC,-0.02
16,GAGTGCACGTGCAGTA,0.1
17,TCTATCACGTGCTGGG,0.15
18,TATGACACGTGGGGTT,-0.1
19,GTACACACGTGGTGGA,0.08
20,AAGAACACGTGTGGAT,0.17
21,TGATTCACGTGATGAA,0.37
22,GACGTCACGTGGTGTG,0.09
23,TGGGTCACGTGATTCG,0.05

# From the BET-seq Pho4 binding data (Le et al. 2018)
